Sequences and labels used below:
B1: AB200-R1H32-R2Vk22 (antibody)
heavy: QVQLVQSGAEVKKPGSSVKVSCKASGGTFSNYWMHWVRQAPGQGLEWMGATYRSHSDTYYNQKFKSRVTITADKSTSTAYMELSSLRSEDTAVYYCARGAIYHGYDVIDNWGQGTLVTVSSASTKGPSVFPLAPSSKSTSGGTAALGCLVKDYFPEPVTVSWNSGALTSGVHTFPAVLQSSGLYSLSSVVTVPSSSLGTQTYICNVNHKPSNTKVDKKVEPKSC
light: DIQMTQSPSSLSASVGDRVTITCRASQSISSYLNWYQQKPGKAPKLLIYATSNLQSGVPSRFSGSGSGTDFTLTISSLQPEDFATYYCQQYRKIPWSFGQGTKLEIKRTVAAPSVFIFPPSDEQLKSGTASVVCLLNNFYPREAKVQWKVDNALQSGNSQESVTEQDSKDSTYSLSSTLTLSKADYEKHKVYACEVTHQGLSSPVTKSFNRGEC
B2: AB200-R1H32-R2Vk1 (antibody)
heavy: QVQLVQSGAEVKKPGSSVKVSCKASGGTFSNYWMHWVRQAPGQGLEWMGATYRSHSDTYYNQKFKSRVTITADKSTSTAYMELSSLRSEDTAVYYCARGAIYHGYDVIDNWGQGTLVTVSSASTKGPSVFPLAPSSKSTSGGTAALGCLVKDYFPEPVTVSWNSGALTSGVHTFPAVLQSSGLYSLSSVVTVPSSSLGTQTYICNVNHKPSNTKVDKKVEPKSC
light: DIQMTQSPSSLSASVGDRVTITCRASQSISSYLNWYQQKPGKAPKLLIYAASSLQSGVPSRFSGSGSGTDFTLTISSLQPEDFATYYCQQFRKLPWSFGQGTKLEIKRTVAAPSVFIFPPSDEQLKSGTASVVCLLNNFYPREAKVQWKVDNALQSGNSQESVTEQDSKDSTYSLSSTLTLSKADYEKHKVYACEVTHQGLSSPVTKSFNRGEC
B3: AB200-R1H32-R2Vk34 (antibody)
heavy: QVQLVQSGAEVKKPGSSVKVSCKASGGTFSNYWMHWVRQAPGQGLEWMGATYRSHSDTYYNQKFKSRVTITADKSTSTAYMELSSLRSEDTAVYYCARGAIYHGYDVIDNWGQGTLVTVSSASTKGPSVFPLAPSSKSTSGGTAALGCLVKDYFPEPVTVSWNSGALTSGVHTFPAVLQSSGLYSLSSVVTVPSSSLGTQTYICNVNHKPSNTKVDKKVEPKSC
light: DIQMTQSPSSLSASVGDRVTITCRASQSISSYINWYQQKPGKAPKLLIYATSNLQSGVPSRFSGSGSGTDFTLTISSLQPEDFATYYCQQYRRLPWSFGQGTKLEIKRTVAAPSVFIFPPSDEQLKSGTASVVCLLNNFYPREAKVQWKVDNALQSGNSQESVTEQDSKDSTYSLSSTLTLSKADYEKHKVYACEVTHQGLSSPVTKSFNRGEC
B4: AB200-R1H32-R2Vk32 (antibody)
heavy: QVQLVQSGAEVKKPGSSVKVSCKASGGTFSNYWMHWVRQAPGQGLEWMGATYRSHSDTYYNQKFKSRVTITADKSTSTAYMELSSLRSEDTAVYYCARGAIYHGYDVIDNWGQGTLVTVSSASTKGPSVFPLAPSSKSTSGGTAALGCLVKDYFPEPVTVSWNSGALTSGVHTFPAVLQSSGLYSLSSVVTVPSSSLGTQTYICNVNHKPSNTKVDKKVEPKSC
light: DIQMTQSPSSLSASVGDRVTITCRASQSISSYLNWYQQKPGKAPKLLIYATSNLQIGVPSRFSGSGSGTDFTLTISSLQPEDFATYYCQQYRKIPWSFGQGTKLEIKRTVAAPSVFIFPPSDEQLKSGTASVVCLLNNFYPREAKVQWKVDNALQSGNSQESVTEQDSKDSTYSLSSTLTLSKADYEKHKVYACEVTHQGLSSPVTKSFNRGEC
B5: AB200-R1H32-R2Vk29 (antibody)
heavy: QVQLVQSGAEVKKPGSSVKVSCKASGGTFSNYWMHWVRQAPGQGLEWMGATYRSHSDTYYNQKFKSRVTITADKSTSTAYMELSSLRSEDTAVYYCARGAIYHGYDVIDNWGQGTLVTVSSASTKGPSVFPLAPSSKSTSGGTAALGCLVKDYFPEPVTVSWNSGALTSGVHTFPAVLQSSGLYSLSSVVTVPSSSLGTQTYICNVNHKPSNTKVDKKVEPKSC
light: DIQMTQSPSSLSASVGDRVTITCRASQSISSYLNWYQQKPGKAPKLLIYATSNLQIGVPSRFSGSGSGTDFTLTISSLQPEDFATYYCQQYRRLPWSFGQGTKLEIKRTVAAPSVFIFPPSDEQLKSGTASVVCLLNNFYPREAKVQWKVDNALQSGNSQESVTEQDSKDSTYSLSSTLTLSKADYEKHKVYACEVTHQGLSSPVTKSFNRGEC
B6: AB200-R1H32-R2Vk25 (antibody)
heavy: QVQLVQSGAEVKKPGSSVKVSCKASGGTFSNYWMHWVRQAPGQGLEWMGATYRSHSDTYYNQKFKSRVTITADKSTSTAYMELSSLRSEDTAVYYCARGAIYHGYDVIDNWGQGTLVTVSSASTKGPSVFPLAPSSKSTSGGTAALGCLVKDYFPEPVTVSWNSGALTSGVHTFPAVLQSSGLYSLSSVVTVPSSSLGTQTYICNVNHKPSNTKVDKKVEPKSC
light: DIQMTQSPSSLSASVGDRVTITCRASQSISSYLNWYQQKPGKAPKLLIYATSNIQSGVPSRFSGSGSGTDFTLTISSLQPEDFATYYCQQYRRIPWTFGQGTKLEIKRTVAAPSVFIFPPSDEQLKSGTASVVCLLNNFYPREAKVQWKVDNALQSGNSQESVTEQDSKDSTYSLSSTLTLSKADYEKHKVYACEVTHQGLSSPVTKSFNRGEC
B7: AB200-R1H32-R2Vk31 (antibody)
heavy: QVQLVQSGAEVKKPGSSVKVSCKASGGTFSNYWMHWVRQAPGQGLEWMGATYRSHSDTYYNQKFKSRVTITADKSTSTAYMELSSLRSEDTAVYYCARGAIYHGYDVIDNWGQGTLVTVSSASTKGPSVFPLAPSSKSTSGGTAALGCLVKDYFPEPVTVSWNSGALTSGVHTFPAVLQSSGLYSLSSVVTVPSSSLGTQTYICNVNHKPSNTKVDKKVEPKSC
light: DIQMTQSPSSLSASVGDRVTITCRASQSISSYLNWYQQKPGKAPKLLIYATSNLQIGVPSRFSGSGSGTDFTLTISSLQPEDFATYYCQQFRRLPWTFGQGTKLEIKRTVAAPSVFIFPPSDEQLKSGTASVVCLLNNFYPREAKVQWKVDNALQSGNSQESVTEQDSKDSTYSLSSTLTLSKADYEKHKVYACEVTHQGLSSPVTKSFNRGEC
B8: AB200-R1H32-R2Vk30 (antibody)
heavy: QVQLVQSGAEVKKPGSSVKVSCKASGGTFSNYWMHWVRQAPGQGLEWMGATYRSHSDTYYNQKFKSRVTITADKSTSTAYMELSSLRSEDTAVYYCARGAIYHGYDVIDNWGQGTLVTVSSASTKGPSVFPLAPSSKSTSGGTAALGCLVKDYFPEPVTVSWNSGALTSGVHTFPAVLQSSGLYSLSSVVTVPSSSLGTQTYICNVNHKPSNTKVDKKVEPKSC
light: DIQMTQSPSSLSASVGDRVTITCRASQSISSYLNWYQQKPGKAPKLLIYATSNLQIGVPSRFSGSGSGTDFTLTISSLQPEDFATYYCQQYRRIPWTFGQGTKLEIKRTVAAPSVFIFPPSDEQLKSGTASVVCLLNNFYPREAKVQWKVDNALQSGNSQESVTEQDSKDSTYSLSSTLTLSKADYEKHKVYACEVTHQGLSSPVTKSFNRGEC
B9: AB200-R1H32-R2Vk24 (antibody)
heavy: QVQLVQSGAEVKKPGSSVKVSCKASGGTFSNYWMHWVRQAPGQGLEWMGATYRSHSDTYYNQKFKSRVTITADKSTSTAYMELSSLRSEDTAVYYCARGAIYHGYDVIDNWGQGTLVTVSSASTKGPSVFPLAPSSKSTSGGTAALGCLVKDYFPEPVTVSWNSGALTSGVHTFPAVLQSSGLYSLSSVVTVPSSSLGTQTYICNVNHKPSNTKVDKKVEPKSC
light: DIQMTQSPSSLSASVGDRVTITCRASQSISSYLNWYQQKPGKAPKLLIYATSNIQSGVPSRFSGSGSGTDFTLTISSLQPEDFATYYCQQYRRLPWSFGQGTKLEIKRTVAAPSVFIFPPSDEQLKSGTASVVCLLNNFYPREAKVQWKVDNALQSGNSQESVTEQDSKDSTYSLSSTLTLSKADYEKHKVYACEVTHQGLSSPVTKSFNRGEC
B10: AB200-R1H32-R2Vk33 (antibody)
heavy: QVQLVQSGAEVKKPGSSVKVSCKASGGTFSNYWMHWVRQAPGQGLEWMGATYRSHSDTYYNQKFKSRVTITADKSTSTAYMELSSLRSEDTAVYYCARGAIYHGYDVIDNWGQGTLVTVSSASTKGPSVFPLAPSSKSTSGGTAALGCLVKDYFPEPVTVSWNSGALTSGVHTFPAVLQSSGLYSLSSVVTVPSSSLGTQTYICNVNHKPSNTKVDKKVEPKSC
light: DIQMTQSPSSLSASVGDRVTITCRASQSISSYLNWYQQKPGKAPKLLIYATSNLQIGVPSRFSGSGSGTDFTLTISSLQPEDFATYYCQQFRKIPWTFGQGTKLEIKRTVAAPSVFIFPPSDEQLKSGTASVVCLLNNFYPREAKVQWKVDNALQSGNSQESVTEQDSKDSTYSLSSTLTLSKADYEKHKVYACEVTHQGLSSPVTKSFNRGEC
B11: AB200-R1H32-R2Vk23 (antibody)
heavy: QVQLVQSGAEVKKPGSSVKVSCKASGGTFSNYWMHWVRQAPGQGLEWMGATYRSHSDTYYNQKFKSRVTITADKSTSTAYMELSSLRSEDTAVYYCARGAIYHGYDVIDNWGQGTLVTVSSASTKGPSVFPLAPSSKSTSGGTAALGCLVKDYFPEPVTVSWNSGALTSGVHTFPAVLQSSGLYSLSSVVTVPSSSLGTQTYICNVNHKPSNTKVDKKVEPKSC
light: DIQMTQSPSSLSASVGDRVTITCRASQSISSYLNWYQQKPGKAPKLLIYATSNLQSGVPSRFSGSGSGTDFTLTISSLQPEDFATYYCQQFRKIPWTFGQGTKLEIKRTVAAPSVFIFPPSDEQLKSGTASVVCLLNNFYPREAKVQWKVDNALQSGNSQESVTEQDSKDSTYSLSSTLTLSKADYEKHKVYACEVTHQGLSSPVTKSFNRGEC
B12: AB200-R1H32-R2Vk26 (antibody)
heavy: QVQLVQSGAEVKKPGSSVKVSCKASGGTFSNYWMHWVRQAPGQGLEWMGATYRSHSDTYYNQKFKSRVTITADKSTSTAYMELSSLRSEDTAVYYCARGAIYHGYDVIDNWGQGTLVTVSSASTKGPSVFPLAPSSKSTSGGTAALGCLVKDYFPEPVTVSWNSGALTSGVHTFPAVLQSSGLYSLSSVVTVPSSSLGTQTYICNVNHKPSNTKVDKKVEPKSC
light: DIQMTQSPSSLSASVGDRVTITCRASQSISSYLNWYQQKPGKAPKLLIYATSNIQSGVPSRFSGSGSGTDFTLTISSLQPEDFATYYCQQFRRLPWTFGQGTKLEIKRTVAAPSVFIFPPSDEQLKSGTASVVCLLNNFYPREAKVQWKVDNALQSGNSQESVTEQDSKDSTYSLSSTLTLSKADYEKHKVYACEVTHQGLSSPVTKSFNRGEC

The series can be described thus: ThermoFluor thermostability (Tm). The class given is physicochemical. The note with it: Fab fragment; light chain clone paired with heavy chain AB200_R1_VH32. On the technique in general: Differential scanning fluorimetry follows unfolding on heating by fluorescence.
Turning to B1, the Tm came out at 77.373 °C.

Consider B2, for which the Tm amounted to 79.956 °C.

For B3, the Tm stood at 76.682 °C.

For the molecule B4, the Tm worked out at 77.189 °C.

Consider B5, for which the Tm is 77.447 °C.

For B6, the Tm is 77.737 °C.

In the case of B7, the Tm was determined as 81.248 °C.

As for B8, the Tm is 78.131 °C.

With B9, the Tm turned out to be 77.417 °C.

B10: the Tm turned out to be 81.061 °C.

B11: the Tm worked out at 80.935 °C.

On to B12, for which the Tm worked out at 80.637 °C.

These data come from patent US12043670B2, “Anti-BCMA antibody-drug conjugates and methods of use” (Eisai R&D Management Co., Ltd., priority 2020, dated 2024).
